Data taken from a protein production outcome set (Wang et al. 2014).

Experiment: label from the status in PepcDB records

| Sequence | protein production |
| --- | --- |
| MSLKIAEIQLFQHDLPVVNGPYRIASGDVWSLTTTIVKIIAEDGTIGWGETCPVGPTYAEAHAGGALAALEVLASGLAGAEALPLPLHTRMDSLLCGHNYAKSALDIAVHDLWGKRLGVPVHELLGGALTDSVSSYYSLGVMEPDEAARQALEKQREGYSRLQVKLGARPIEIDIEAIRKVWEAVRGTGIALAADGNRGWTTRDALRFSRECPDIPFVMEQPCNSFEDLEAIRPLCHHALYMDEDGTSLNTVITAAATSLVDGFGMKVSRIGGLQHMRAFRDFCAARNLPHTCDDAWGGDIVSAACTHIASTVLPRLMEGAWLAQPYVAEHYDAENGVRIEGGRIRVPQGPGLGLTIDPERFGPPLFSAEGHHHHHH | not failed |
| IDEGPLAFATPEQISMDLKNELMYQLEQDHDLQAILQERELLPVKKFESEILEAISQNSVVIIRGATGCGKTTQVPQFILDDFIQNDRAAECNIVVTQPRRISAVSVAERVAFERGEEPGKSCGYSVRFESILPRPHASIMFCTVGVLLRKLEAGIRGISHVIVDEIHERDINTDFLLVVLRDVVQAYPEVRIVLMSATIDTSMFCEYFFNCPIIEVYGRTYPVQEYFLEDCIQMTHFVPPP | failed |
